These results are taken from article PMC4336329 (PLoS ONE, 2015).

Structures are written as SMILES. About 14,000 (4.5%) of roughly 310,000 compounds showed an effect of 50% or more. The effect is printed as a negative number. This is one part of the list.
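Also: peak tail current of the secondary pulse compared with the same well before compound.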

Sequence of human ether-à-go-go-related gene (hERG) potassium channel (Q12809 whole entry, looked up): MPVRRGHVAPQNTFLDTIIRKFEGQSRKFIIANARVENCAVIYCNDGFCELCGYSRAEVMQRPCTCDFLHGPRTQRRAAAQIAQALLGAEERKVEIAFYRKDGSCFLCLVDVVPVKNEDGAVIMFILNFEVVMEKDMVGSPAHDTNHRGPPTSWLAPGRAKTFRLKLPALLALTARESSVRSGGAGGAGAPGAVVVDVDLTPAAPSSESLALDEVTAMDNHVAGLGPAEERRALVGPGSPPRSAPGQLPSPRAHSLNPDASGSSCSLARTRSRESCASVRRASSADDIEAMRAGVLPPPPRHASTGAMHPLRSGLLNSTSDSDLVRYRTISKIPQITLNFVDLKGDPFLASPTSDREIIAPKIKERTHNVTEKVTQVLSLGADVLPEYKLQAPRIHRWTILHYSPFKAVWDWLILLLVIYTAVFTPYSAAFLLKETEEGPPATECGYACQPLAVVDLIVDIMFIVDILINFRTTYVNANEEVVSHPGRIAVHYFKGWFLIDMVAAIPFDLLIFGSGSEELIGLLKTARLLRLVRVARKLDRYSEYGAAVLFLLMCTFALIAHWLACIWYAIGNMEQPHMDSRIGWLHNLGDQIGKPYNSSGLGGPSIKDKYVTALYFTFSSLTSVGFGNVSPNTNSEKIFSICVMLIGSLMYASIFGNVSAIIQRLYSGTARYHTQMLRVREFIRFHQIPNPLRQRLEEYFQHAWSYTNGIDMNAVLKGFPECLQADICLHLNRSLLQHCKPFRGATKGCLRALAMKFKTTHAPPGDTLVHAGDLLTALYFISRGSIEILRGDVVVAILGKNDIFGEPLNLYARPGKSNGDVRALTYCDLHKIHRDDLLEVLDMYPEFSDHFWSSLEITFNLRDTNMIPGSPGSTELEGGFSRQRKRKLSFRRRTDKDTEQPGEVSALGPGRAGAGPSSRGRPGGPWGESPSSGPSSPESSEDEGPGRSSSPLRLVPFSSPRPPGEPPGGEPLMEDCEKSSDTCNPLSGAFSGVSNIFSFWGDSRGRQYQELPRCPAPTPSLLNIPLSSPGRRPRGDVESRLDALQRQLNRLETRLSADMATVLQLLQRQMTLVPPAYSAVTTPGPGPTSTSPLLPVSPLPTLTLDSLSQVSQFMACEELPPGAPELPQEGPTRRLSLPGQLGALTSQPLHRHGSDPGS

The assay concerns the target human ether-à-go-go-related gene (hERG) potassium channel (human, UniProt Q12809). Put plainly: primary screen, population patch clamp on CHO cells stably expressing hERG.
As for `O=C(CSc1nnc(-c2ccc(Br)cc2)o1)Nc1cccc2ccccc12`, the “hERG current change (%, negative = inhibition) at 10uM” value is recorded as -3.23%.
With `O=Cc1c(OCc2ccccc2)ccc2ccccc12`, the “hERG current change (%, negative = inhibition) at 10uM” value stood at 7.01%.
For `CN(C)N=Nc1ccc(-c2cn(Cc3ccccc3)cn2)cc1`, the “hERG current change (%, negative = inhibition) at 10uM” value was 11%.
With `CCNC(=O)C(=O)NCC(c1cccs1)S(=O)(=O)c1ccc(C)cc1` (stereo not drawn), the “hERG current change (%, negative = inhibition) at 10uM” value turned out to be 6.71%.
Take `O=C(N/N=C/c1ccccc1)c1ccc(NC(=O)c2ccc(F)cc2)cc1`: the “hERG current change (%, negative = inhibition) at 10uM” value is given as 11.7%.
The result for `COc1ccc(S(=O)(=O)Nc2ccc3c(c2)COC3=O)cc1OC` reads -18.7%; that for `CCC(C)n1c(S(=O)(=O)O)nc2ccccc21` (stereo not drawn), -0.777%.
For `CN1CCN(c2nc(Nc3cccc(C(F)(F)F)c3)nc(N3CCOCC3)n2)CC1`, the “hERG current change (%, negative = inhibition) at 10uM” value is -60%.
For the compound `CCc1nc(N(CC)CC)c2oc3ccccc3c2n1.Cl`, the “hERG current change (%, negative = inhibition) at 10uM” value is given as -21.1%.
Consider `COc1ccc(C(=O)Nc2nc(CC(=O)NCCc3ccccc3)cs2)cc1`, for which the “hERG current change (%, negative = inhibition) at 10uM” value is on record as -23.4%.
The same measure for `COc1ccccc1OCCC(=O)N1CCN(c2ccccc2OC)CC1`: 3.23%; for `CC(CC(=O)NCc1ccccc1)C1CCCO1` (stereo not drawn): 19.3%; for `Nc1ccc(N=Nc2ccccc2)cc1`: 28.3%.
The same measure for `NNC(=O)COc1ccc2oc3c(c2c1)CCCC3`: 19.9%; for `Cn1cccc1Cc1nnc(SCC(=O)NCc2ccccc2)n1-c1ccc(F)cc1`: -19.5%; for `O=C(Nc1ccccc1-c1nc2ccccc2[nH]c1=O)c1cccs1`: 2.16%.
The same measure for `CCCC(C)NC(=O)COC(=O)c1ccc(Cl)c(S(N)(=O)=O)c1` (stereo not drawn): 8.02%.
For `CC(C)=CCN1CCN(Cc2ccc(C)s2)CC1CCO` (stereo not drawn), the “hERG current change (%, negative = inhibition) at 10uM” value is -16.1%.
As for `CC(NC(=O)C1CCN(C(=O)c2cccs2)CC1)c1ccc(S(N)(=O)=O)cc1` (stereo not drawn), the “hERG current change (%, negative = inhibition) at 10uM” value was 3.01%.
Take `CCOc1ccc(C(=O)NC(=S)Nc2ccccn2)cc1[N+](=O)[O-]`: the “hERG current change (%, negative = inhibition) at 10uM” value was -2.48%.
Regarding `O=C(COC(=O)c1c(Cl)cccc1Cl)Nc1cccc(S(=O)(=O)NC2=NCCCCC2)c1`, the “hERG current change (%, negative = inhibition) at 10uM” value was -20.4%.
Turning to `COCC(=O)Nc1sc2c(c1C(=O)OC)C(C(=O)OC)CC2` (stereo not drawn), the “hERG current change (%, negative = inhibition) at 10uM” value is recorded as -4.51%.
The same measure for `Cc1csc(NC(=O)CSc2nc(=O)n(CCN(C)C)c3c2CCCC3)n1`: -55.9%.
Consider `Cn1c(/C=C/c2ccc(Cl)cc2)nc2ccccc2c1=O`, for which the “hERG current change (%, negative = inhibition) at 10uM” value was 15.8%.
On to `CC(C)/C=C/C(=O)N1CCCC(N2CCN(c3ccccc3F)CC2)C1` (stereo not drawn), for which the “hERG current change (%, negative = inhibition) at 10uM” value is -33.4%.
In the case of `Cc1cc(C(=O)NCCC2=CCCCC2)no1`, the “hERG current change (%, negative = inhibition) at 10uM” value is recorded as -7.77%.
Consider `CNC(=S)N1CCN(c2cccc(OC)c2)CC1`, for which the “hERG current change (%, negative = inhibition) at 10uM” value was -7.23%.
As for `Cc1ccc(C)n1-c1ccc(-c2ccn[nH]2)cc1`, the “hERG current change (%, negative = inhibition) at 10uM” value is given as -10%.
In the case of `CC(C)(C)c1ccc(C(=O)NCc2ccco2)cc1`, the “hERG current change (%, negative = inhibition) at 10uM” value is on record as -2.98%.
Take `Cc1cc(C(=O)COC(=O)COc2ccc(C#N)cc2)c(C)n1C1CC1`: the “hERG current change (%, negative = inhibition) at 10uM” value is given as 16.9%.
Take `O=C1CC(c2ccccc2)CC(O)=C1C=NCCCO` (stereo not drawn): the “hERG current change (%, negative = inhibition) at 10uM” value came to 5.91%.
`CCOc1ccc(NC(=O)CN(C)C(=O)c2cc(C)nc3ccccc23)cc1OCC`: the “hERG current change (%, negative = inhibition) at 10uM” value was -16.2%.
For the compound `COC(=O)c1ccc(NC(=O)COC(=O)C2CCC2)cc1`, the “hERG current change (%, negative = inhibition) at 10uM” value is given as 4.03%.
The result for `CCOC(=O)N1CCN(S(=O)(=O)c2ccc3c(c2)CCN3C(=O)C2CC2)CC1` reads -11.5%; that for `C[N+]1(CC(O)COc2ccccc2)CCN(C(=O)c2ccc([N+](=O)[O-])cc2)CC1.[I-]` (stereo not drawn), -9.95%; that for `O=C(CCN1C(=O)[C@@H]2Cc3ccccc3CN2C1=O)NCc1ccccc1`, -12%.
For the compound `COc1ccc2nc(C)cc(SCC(=O)N/N=C/c3c(OC)ccc4ccccc34)c2c1`, the “hERG current change (%, negative = inhibition) at 10uM” value is recorded as 12.8%.
The same measure for `COc1cc(NC(=O)C/C(C)=N/NC(=O)c2ccccn2)c(OC)cc1Cl`: -2.91%; for `CCOC(=O)COc1ccc(S(=O)(=O)N2CCN(c3ccc(F)cc3)CC2)cc1`: -60%; for `Cc1nn(-c2nc3ccccc3s2)c(N)c1Sc1ccc(F)cc1`: 7.4%.
Turning to `O=C(COC(=O)c1ccc2ccccc2n1)NCc1ccccc1`, the “hERG current change (%, negative = inhibition) at 10uM” value is on record as 13.7%.
As for `Cn1c(NCCN2CCCCC2)cc(=O)n(C)c1=O`, the “hERG current change (%, negative = inhibition) at 10uM” value came out at 13.7%.
As for `CC(C)C(NS(=O)(=O)c1ccccc1)C(=O)NC1CCCC1` (stereo not drawn), the “hERG current change (%, negative = inhibition) at 10uM” value is recorded as -17.1%.
As to `CCC(C)[C@H](NC(=O)N1CC(=O)Nc2ccccc21)C(=O)N[C@H](Cc1ccccc1)C(=O)O` (stereo partly drawn), the “hERG current change (%, negative = inhibition) at 10uM” value was determined as 4.31%.
Consider `CC(C)(C)NC(=O)CCCSc1nc2ccccc2s1`, for which the “hERG current change (%, negative = inhibition) at 10uM” value is on record as -24.4%.
The result for `CCOC(=O)c1c(Nc2ccccc2OCCOC)n[nH]c1C` reads 1.25%; that for `O=C(Nc1ncccc1O)c1cccc(S(=O)(=O)N2CCc3ccccc32)c1`, -25.2%.
Consider `COc1ccc(CN2CC(C(=O)N3CCOCC3)CC2=O)cc1` (stereo not drawn), for which the “hERG current change (%, negative = inhibition) at 10uM” value amounted to 12.7%.
Take `O=C(CCC1CCCCC1)Nc1cccc(C(=O)Nc2ccc(C(=O)O)cc2)c1`: the “hERG current change (%, negative = inhibition) at 10uM” value stood at 22.4%.
As to `O=C(NCCCN1CCOCC1)c1cc(-c2ccc(Cl)c(Cl)c2)on1`, the “hERG current change (%, negative = inhibition) at 10uM” value is -49.1%.
The same measure for `CC(C)c1nnc(NC(=O)c2cccs2)s1`: 6.72%.
Take `CC(C)(C)n1nc2c(c1NC(=O)Cc1cccc3ccccc13)CS(=O)(=O)C2`: the “hERG current change (%, negative = inhibition) at 10uM” value is recorded as -3.5%.
For the compound `CCOc1nc(OCC)nc(-n2cc(-c3ccccc3)nn2)n1`, the “hERG current change (%, negative = inhibition) at 10uM” value was determined as 3.41%.
The result for `CC(Oc1ccc(-c2ccccc2)cc1)C(=O)O` (stereo not drawn) reads 18.7%; that for `CCc1ccc(C(=O)COC(=O)[C@@H](NC(N)=O)[C@@H](C)CC)cc1`, -14.5%.
The result for `O=C(O)c1ccc(N2CCCCC2)cc1O` reads 3.83%; that for `COc1ccccc1NS(=O)(=O)c1ccc(NN=C2CCCC2)c([N+](=O)[O-])c1`, 8.84%.
Regarding `CS(=O)(=O)Nc1ccc(C2=NN(S(C)(=O)=O)C(c3ccc4nccnc4c3)C2)cc1` (stereo not drawn), the “hERG current change (%, negative = inhibition) at 10uM” value is -32.8%.
As for `Cc1ccc(C(=O)COC(=O)c2cnccn2)cc1C`, the “hERG current change (%, negative = inhibition) at 10uM” value was determined as 17%.
As to `COc1ccccc1C(=O)NC(=S)/C=C1/N(C)c2ccccc2C1(C)C`, the “hERG current change (%, negative = inhibition) at 10uM” value is on record as -10.9%.
The result for `COc1ccc(C)cc1N(C(=O)c1ccco1)C(C(=O)NC1CCCC1)c1ccc(N2CCOCC2)cc1` (stereo not drawn) reads -5.77%; that for `COCCSc1ccccc1C(=O)NCCCn1ccnc1`, -15.1%.
The result for `COc1ccccc1Nc1ccc(S(=O)(=O)N2CCCCC2)cc1[N+](=O)[O-]` reads 9.03%; that for `COc1ccc(-c2csc3nc[nH]c(=O)c23)cc1OC`, 4.52%.
The result for `CCOC(=O)c1ccc(N2C(=O)CC(N3CCCC(C)C3)C2=O)cc1` (stereo not drawn) reads 3.18%.
In the case of `C[C@H](NC(=O)C1CCN(S(=O)(=O)c2ccccc2)CC1)C(=O)NCc1ccc(F)cc1`, the “hERG current change (%, negative = inhibition) at 10uM” value was 2.23%.
The result for `Cn1nnnc1N=N/C(=N/Nc1ccccc1)c1ccccc1` reads 6.78%; that for `CCOC(=O)Nc1ccc(C(=O)c2ccncc2)cc1`, 14.7%; that for `O=C(O)C1=NN(c2ccccc2)C(=O)C1`, 4.84%.
Consider `Nc1nc(SCC(=O)Nc2ccc(OCc3ccccc3)cc2)n[nH]1`, for which the “hERG current change (%, negative = inhibition) at 10uM” value is reported as 17.2%.
Turning to `CC(CN1CCCCC1)OC(=O)c1ccccc1Cl.Cl` (stereo not drawn), the “hERG current change (%, negative = inhibition) at 10uM” value is given as 0.889%.
Regarding `CCOc1nc(C)cc(C)c1S(=O)(=O)c1cccc(C)c1`, the “hERG current change (%, negative = inhibition) at 10uM” value was -5.24%.
For the compound `Cc1ccc(CNC(=O)c2cc(S(=O)(=O)N3CCCCC3)ccc2N2CCOCC2)cc1`, the “hERG current change (%, negative = inhibition) at 10uM” value is listed as -40.5%.
For `Cc1ccc(C(=O)CSc2nc3ccccc3c(=O)[nH]2)cc1C`, the “hERG current change (%, negative = inhibition) at 10uM” value turned out to be 13.1%.
With `O=C(O)c1ccc2c(c1)C(=O)N(c1ncccn1)C2=O`, the “hERG current change (%, negative = inhibition) at 10uM” value is on record as -1.29%.
Regarding `Cc1cccc(CC2SC(N)=NC2=O)c1.Cl` (stereo not drawn), the “hERG current change (%, negative = inhibition) at 10uM” value is listed as 19.9%.
For `COc1ccccc1N1CCN(CCCNC(=O)Nc2ccccc2C)CC1`, the “hERG current change (%, negative = inhibition) at 10uM” value is recorded as -33.7%.
As to `O=S(=O)(c1ccccc1)N1CCc2ccccc2C1`, the “hERG current change (%, negative = inhibition) at 10uM” value was found to be 1.32%.
Take `CC(=O)Nc1ccc(S(=O)(=O)N2CCN(Cc3cccs3)CC2)cc1.O=C(O)C(=O)O`: the “hERG current change (%, negative = inhibition) at 10uM” value is recorded as -7.69%.
The same measure for `O=C(NCc1ccco1)c1cc2ccccc2c(=O)o1`: 14%; for `C=CCn1c(SCC(=O)Nc2ccccc2)nnc1-c1cccc(S(=O)(=O)N2CCOCC2)c1`: -47.5%.
On to `COC(=O)c1ccc(C)c(NS(=O)(=O)c2ccc(OC)c(OC)c2)c1`, for which the “hERG current change (%, negative = inhibition) at 10uM” value was -11.9%.
The result for `O=C(c1cnc(N2CCN(c3ccccn3)CC2)c2ccccc12)N1CCN(c2cccc(Cl)c2)CC1` reads 3.86%.
The same measure for `C/C(=N\OC(=O)c1c(-c2c(F)cccc2Cl)noc1C)c1nccs1`: 12.9%.
In the case of `Cc1ccc(S(=O)(=O)N(C)C)cc1NC(=O)COC(=O)Cc1ccc(Br)cc1`, the “hERG current change (%, negative = inhibition) at 10uM” value is reported as -56.7%.
Take `O=C(Cn1cc(C(=O)C2CCCCC2)c2ccccc21)NCC1CCCO1` (stereo not drawn): the “hERG current change (%, negative = inhibition) at 10uM” value is recorded as -14.8%.
Turning to `COc1ccc(/C=C(/NC(=O)c2ccco2)C(=O)N2CCc3ccccc32)cc1OC`, the “hERG current change (%, negative = inhibition) at 10uM” value was -2.94%.
`CC1(C)CC2CC(C)(CN2S(=O)(=O)c2ccc(C(=O)Nc3cc(S(=O)(=O)N4CCOCC4)ccc3Cl)cc2)C1` (stereo not drawn): the “hERG current change (%, negative = inhibition) at 10uM” value stood at 12%.
In the case of `Cc1ccccc1Nc1nc(-c2cccnc2)nc2ccccc12.Cl`, the “hERG current change (%, negative = inhibition) at 10uM” value was -30.1%.
On to `c1ccc(-c2ccccc2OCCN2CCCC2)cc1`, for which the “hERG current change (%, negative = inhibition) at 10uM” value is -26.6%.
